This note sets out measurements from US12528864 (GlaxoSmithKline, dated 2026).

In experiment [1] the target is T1, human CD96v2 expressed on cells (CHO cells; transiently transfected HEK cells) (human, UniProt P40200-2 22-569).
T1 construct: whole, on cells; the cell is named under assay; also called CHO-huCD96; hCD96v2
T1 sequence (looked up): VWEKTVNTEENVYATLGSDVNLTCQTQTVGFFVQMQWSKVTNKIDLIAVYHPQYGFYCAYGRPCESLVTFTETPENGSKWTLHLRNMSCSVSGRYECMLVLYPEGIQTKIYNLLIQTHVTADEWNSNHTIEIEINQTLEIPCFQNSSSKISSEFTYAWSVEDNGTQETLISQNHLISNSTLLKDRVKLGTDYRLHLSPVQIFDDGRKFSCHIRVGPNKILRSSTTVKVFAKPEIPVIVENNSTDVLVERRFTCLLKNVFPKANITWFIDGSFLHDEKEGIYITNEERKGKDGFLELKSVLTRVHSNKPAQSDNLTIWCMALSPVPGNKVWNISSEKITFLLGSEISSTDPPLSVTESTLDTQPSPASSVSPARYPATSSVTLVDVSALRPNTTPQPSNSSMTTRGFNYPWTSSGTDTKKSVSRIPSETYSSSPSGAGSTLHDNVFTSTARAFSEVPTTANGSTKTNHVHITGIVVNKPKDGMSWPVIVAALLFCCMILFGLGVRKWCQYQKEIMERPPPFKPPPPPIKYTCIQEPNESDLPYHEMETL
Nature of the experiment: flow cytometry on CHO cells expressing human CD96v2. Background: In flow cytometry, cells or beads pass a laser one at a time.

Experiment [2] addresses T2, cynomolgus monkey CD96v2 expressed on cells (CHO cells; transiently transfected HEK cells) (cynomolgus monkey, UniProt A0A2K5TWV6 22-569).
T2 construct: the cell is named under assay; also called CHO-cyCD96; Cyno CD96v2
T2 sequence: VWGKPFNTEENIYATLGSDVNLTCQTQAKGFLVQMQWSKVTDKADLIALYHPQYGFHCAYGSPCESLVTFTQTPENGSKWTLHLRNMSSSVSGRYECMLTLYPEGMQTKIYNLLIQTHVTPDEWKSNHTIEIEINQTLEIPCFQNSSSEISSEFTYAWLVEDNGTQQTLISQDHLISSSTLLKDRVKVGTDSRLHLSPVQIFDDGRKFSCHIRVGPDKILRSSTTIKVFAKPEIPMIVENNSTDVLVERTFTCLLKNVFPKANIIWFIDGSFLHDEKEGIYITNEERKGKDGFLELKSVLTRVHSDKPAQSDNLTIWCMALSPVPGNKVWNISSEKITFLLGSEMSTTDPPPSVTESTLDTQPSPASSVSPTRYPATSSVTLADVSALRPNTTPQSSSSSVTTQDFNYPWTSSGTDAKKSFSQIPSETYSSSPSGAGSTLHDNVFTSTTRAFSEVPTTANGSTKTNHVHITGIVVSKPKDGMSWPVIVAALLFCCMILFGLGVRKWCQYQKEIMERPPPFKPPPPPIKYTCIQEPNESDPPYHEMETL
Nature of the experiment: flow cytometry on CHO cells expressing cynomolgus CD96v2.

For experiment [3], the target named is T1, human CD96v2 expressed on cells (CHO …). Description: flow cytometry, inhibition of human CD155-Fc-AF647 binding to CHO cells expressing human CD96v2; competitor CD155-Fc.

B1: 42Y073-86F04-23 (antibody)
heavy: QVQLVQSGAEVKKPGSSVKVSCKASGGTFSGYPISWVRQAPGQGLEWMGGIIPIMGTARYAQKFQGRVTITADESTSTAYMELSSLRSEDTAVYYCARLLGESGMDVWGQGTTVTVSS[letters of human IgG1 constant region omitted]
light: DIQMTQSPSSLSASVGDRVTITCRASQSISSYLNWYQQKPGKAPKLLIYAASSLQSGVPSRFSGSGSGTDFTLTISSLQPEDFATYYCQQPYFSPPTFGGGTKVEIKRTVAAPSVFIFPPSDEQLKSGTASVVCLLNNFYPREAKVQWKVDNALQSGNSQESVTEQDSKDSTYSLSSTLTLSKADYEKHKVYACEVTHQGLSSPVTKSFNRGEC
The EC50 is the concentration that produces a half-maximal response. A word on the IC50: it is the concentration that inhibits the measured activity by half. Take B1: the concentration giving a half-maximal response (EC50) turned out to be 0.06 nM in experiment [1] and 0.03 nM in experiment [2]. In experiment [3], this molecule had an IC50 of 0.76 nM.
